From the supplement of paper PMC10126150
Sequences with one replicate were seen in a single cluster, so their values are uncertain.
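Note: ATP exposure 15 min at 22 °C before imaging.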

Each sequence was assayed on ATP (assay: switch fluorescence ratio, 500 uM ATP over buffer (Cy3 cluster intensity, sum of 5 cycles each) (fold (ratio)); higher = stronger signal-on switching upon ATP binding; sequences stand for … in TCGTCGGCAGCGTCAGATGTGTATAAGAGACAGTTTTTTTTTTTTTTTTTTTTTTTTT…TC). Details: aptamer strand: ATP DNA aptamer (quencher-CACCTGGGGGAGTATTGCGGAGGAAGG + anchor), 100 nM annealed; ATP concentration: 500 uM; one replicate.
Outline: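 Switching-strand clusters labelled with Cy3 on a modified Illumina MiSeq flow-cell were annealed to 100 nM quencher-labelled ATP aptamer, imaged in selection buffer, and re-imaged after 15 min with 500 uM ATP at 22 °C. This was done over five cycles with NaOH stripping and re-annealing in between. The fluorescence ratio is summed target-cycle over summed buffer-cycle Cy3 intensity per cluster, averaged per switch-domain sequence, excluding clusters outside 100-1000 RFU.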
TGGTGTCCTC was tested, and the switch fluorescence ratio was 1.03. TGGTGTGCGA was tested, and the switch fluorescence ratio was 0.982. Sequence TGGTTACGG has a switch fluorescence ratio of 0.99. Work on TGGTTATCA yielded a switch fluorescence ratio of 0.993. For TGGTTCTAGC, the switch fluorescence ratio was 1.01. In the case of TGGTTGAGAA, the switch fluorescence ratio was 1. TGGTTTAAGC showed a switch fluorescence ratio of 0.975. For TGGTTTGCG, the switch fluorescence ratio was 1. Work on TGTAACGCCT yielded a switch fluorescence ratio of 0.991. TGTAACTCAA gave a switch fluorescence ratio of 1.07. In the case of TGTAACTTTG, the switch fluorescence ratio was 0.985. TGTAAGCTTG showed a switch fluorescence ratio of 0.955. TGTAAGGAAG gave a switch fluorescence ratio of 1. TGTAAGGTAT gave a switch fluorescence ratio of 1.03. With TGTAAGTACG the switch fluorescence ratio was 1.24. Work on TGTAATAATC yielded a switch fluorescence ratio of 1.05. Sequence TGTAATTAAA has a switch fluorescence ratio of 0.978. With TGTAATTTG the switch fluorescence ratio was 1.04. With TGTACCGCCA the switch fluorescence ratio was 1.17. TGTACTTCAA was tested, and the switch fluorescence ratio was 1.01. With TGTAGGATTA the switch fluorescence ratio was 1.05. In the case of TGTAGGGAGT, the switch fluorescence ratio was 0.992. TGTAGGGGAT gave a switch fluorescence ratio of 0.973. For TGTAGGTGTG, the switch fluorescence ratio was 0.976. In the case of TGTAGTCGCC, the switch fluorescence ratio was 0.978. TGTAGTGTAG gave a switch fluorescence ratio of 1.03. Work on TGTAGTTAAC yielded a switch fluorescence ratio of 1.01. For TGTAGTTGGG, the switch fluorescence ratio was 1.04. With TGTATACGGG the switch fluorescence ratio was 1.07. TGTATATCGA showed a switch fluorescence ratio of 1.03. With TGTATCCAAC the switch fluorescence ratio was 1. With TGTATCGATG the switch fluorescence ratio was 0.991. TGTATCTTAG gave a switch fluorescence ratio of 1.02. TGTATGCCAG was tested, and the switch fluorescence ratio was 0.932. With TGTATGCTAG the switch fluorescence ratio was 0.973. TGTATGTCGC showed a switch fluorescence ratio of 1.05. With TGTATTTTGA the switch fluorescence ratio was 1.03. In the case of TGTCAAT, the switch fluorescence ratio was 1.01. For TGTCAATTTT, the switch fluorescence ratio was 1.04. For TGTCACGTGC, the switch fluorescence ratio was 0.991. Sequence TGTCAGAAGA has a switch fluorescence ratio of 1.03. TGTCATAGGT was tested, and the switch fluorescence ratio was 0.993. For TGTCATCC, the switch fluorescence ratio was 1.04. Work on TGTCCTTTTG yielded a switch fluorescence ratio of 1.03. Work on TGTCGCACCT yielded a switch fluorescence ratio of 1.04. With TGTCGGACTG the switch fluorescence ratio was 1.01. For TGTCGGCTTA, the switch fluorescence ratio was 1.04. Sequence TGTCGTAGCA has a switch fluorescence ratio of 1.01. Sequence TGTCGTTTAT has a switch fluorescence ratio of 1.01. TGTCTATACT gave a switch fluorescence ratio of 1.12. TGTCTGAAAA showed a switch fluorescence ratio of 1.01. TGTCTGAATG gave a switch fluorescence ratio of 1.03. TGTCTGGGCC was tested, and the switch fluorescence ratio was 0.988. In the case of TGTCTTTAGA, the switch fluorescence ratio was 1.02. In the case of TGTGAAACAG, the switch fluorescence ratio was 1.02. TGTGAACCG was tested, and the switch fluorescence ratio was 0.987. TGTGAAGTCT showed a switch fluorescence ratio of 1.03. With TGTGACAA the switch fluorescence ratio was 1.11. For TGTGACACAT, the switch fluorescence ratio was 1.02. With TGTGAGCTAG the switch fluorescence ratio was 0.995. In the case of TGTGATAGG, the switch fluorescence ratio was 0.989. TGTGATTCG showed a switch fluorescence ratio of 1.23. With TGTGCATTGG the switch fluorescence ratio was 1.01. Sequence TGTGCCCAAC has a switch fluorescence ratio of 0.98. TGTGCCCGCT showed a switch fluorescence ratio of 0.984. With TGTGCCTAT the switch fluorescence ratio was 0.978. Work on TGTGCCTCTG yielded a switch fluorescence ratio of 1.04. For TGTGCGACTT, the switch fluorescence ratio was 0.979. TGTGCGTCAC was tested, and the switch fluorescence ratio was 0.998. TGTGCTAAC was tested, and the switch fluorescence ratio was 1.12. With TGTGCTGATA the switch fluorescence ratio was 1.01. Work on TGTGGAAAGT yielded a switch fluorescence ratio of 0.977. In the case of TGTGGAATGC, the switch fluorescence ratio was 1.28. Sequence TGTGGACGGC has a switch fluorescence ratio of 0.995. TGTGGAGCTA gave a switch fluorescence ratio of 1.11. Sequence TGTGGATCTT has a switch fluorescence ratio of 0.995. Work on TGTGGATTCT yielded a switch fluorescence ratio of 0.981. TGTGGCAATA was tested, and the switch fluorescence ratio was 2.21. Work on TGTGGCGCGA yielded a switch fluorescence ratio of 1.01. Sequence TGTGGGAGCA has a switch fluorescence ratio of 1.06. In the case of TGTGGTAATT, the switch fluorescence ratio was 0.967. With TGTGGTACAA the switch fluorescence ratio was 1.01. In the case of TGTGGTGAGG, the switch fluorescence ratio was 1.01. For TGTGGTTCTA, the switch fluorescence ratio was 1.01. With TGTGTACGGG the switch fluorescence ratio was 1. Sequence TGTGTAGAA has a switch fluorescence ratio of 0.988. TGTGTAGAGC showed a switch fluorescence ratio of 0.985. TGTGTATGC gave a switch fluorescence ratio of 0.975. In the case of TGTGTATTGC, the switch fluorescence ratio was 0.995. For TGTGTCAGCA, the switch fluorescence ratio was 0.994. Work on TGTGTCTAAC yielded a switch fluorescence ratio of 1.06. Sequence TGTGTCTAGC has a switch fluorescence ratio of 0.972. For TGTGTGACAT, the switch fluorescence ratio was 0.995. Work on TGTGTGACCT yielded a switch fluorescence ratio of 1.11. TGTGTGGCTG gave a switch fluorescence ratio of 0.948. With TGTGTGGTGG the switch fluorescence ratio was 1.03. TGTGTGGTTG showed a switch fluorescence ratio of 1.04. TGTGTGTGA gave a switch fluorescence ratio of 1.04. Sequence TGTGTTCTTT has a switch fluorescence ratio of 0.972. TGTTAAAACT gave a switch fluorescence ratio of 1.02.
